{"source": "PubChem BioAssay AID624417", "about": "(National Center for Advancing Translational Sciences (NCATS), 2012)", "note": "About 6,400 (1.6%) of roughly 410,000 compounds were called active. The shares of active, inactive and inconclusive entries below differ from those in the screen. The call rests on the fitted dose curve; in most records, active means well fitted inhibition curve with a large enough effect; inconclusive means small, poorly fitted or top-dose-only effect; inactive means no such curve, though single readings can be large or run the other way. Potencies of inconclusive entries are left out as doubtful fits. On the % scale 0 is the no-effect control and ±100 the full control effect; potency means the concentration at half of the fitted maximal effect; tags describe the fitted curve by direction and shape.", "data": [{"target": "Glucagon-like peptide 1 receptor (Homo sapiens) (UniProt P43220)", "sequence (P43220 whole entry, looked up)": "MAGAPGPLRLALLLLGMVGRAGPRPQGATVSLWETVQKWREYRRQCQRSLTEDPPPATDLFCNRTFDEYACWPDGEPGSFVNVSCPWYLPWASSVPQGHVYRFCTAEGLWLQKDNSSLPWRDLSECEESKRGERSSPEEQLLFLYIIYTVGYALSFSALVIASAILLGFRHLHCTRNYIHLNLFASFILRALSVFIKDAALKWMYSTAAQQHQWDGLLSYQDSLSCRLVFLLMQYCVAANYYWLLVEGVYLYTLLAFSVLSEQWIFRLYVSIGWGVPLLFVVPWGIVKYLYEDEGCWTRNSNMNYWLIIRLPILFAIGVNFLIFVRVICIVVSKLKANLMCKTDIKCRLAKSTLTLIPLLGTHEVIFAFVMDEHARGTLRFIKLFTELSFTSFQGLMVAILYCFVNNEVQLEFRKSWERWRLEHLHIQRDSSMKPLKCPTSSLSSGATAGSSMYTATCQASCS", "test": "qHTS of GLP-1 Receptor Inverse Agonists (Inhibition Mode); further: nearly all actives have a fitted effect of over 55% in size", "conditions": "HEK293 GLP-1R CRE-luciferase, luminescence, 24 h, GLP-1R form is constitutively active; activity change, negative = inhibition: at 38.3 µM (top of the series) unless noted", "how_it_was_run": "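HEK293 cells stably co-expressing constitutively active GLP-1R and a cAMP-responsive luciferase reporter were seeded in DMEM with 10% Nu serum, given compounds after 12 h, and incubated 24 h at 37 deg C. Luminescence was then read.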", "values": [{"smiles": "Cc1nc(NCc2ccco2)c2c3c(sc2n1)CCC3", "activity change, negative = inhibition": "inactive: 51.4%"}, {"smiles": "COc1ccc(/C=N/OCC(=O)N2CC3(C)CC2CC(C)(C)C3)cc1", "note": "(stereo not given)", "Potency": "inconclusive [inhibitor, single point]"}, {"smiles": "CCOc1ccccc1C(=O)NCCCN1CCN(CCCNC(=O)c2ccccc2OCC)CC1", "Potency": "inconclusive [inhibitor, full curve, poor fit]"}, {"smiles": "Cc1ccc(OCCCCN2CCc3ccccc3C2)cc1", "Potency": "inconclusive [inhibitor, partial curve, poor fit]"}, {"smiles": "CCOc1ccc(NC(=O)CN(C)C(=O)c2cc3c(s2)CCC(C)C3)cc1OCC", "note": "(stereo not given)", "Potency": "inconclusive [inhibitor, partial curve, poor fit]"}, {"smiles": "N#CCCn1nc(-c2ccccc2)cc1Nc1ccccc1NC(=O)C(F)(F)F", "Potency": "inconclusive [inhibitor, single point]"}, {"smiles": "CCOc1ccc(S(=O)(=O)N2CCCCC2)cc1NC(=O)C1CCC1", "activity change, negative = inhibition": "inactive: 4.24%"}, {"smiles": "O=C(Cn1ccc2cc(S(=O)(=O)N3CCCCC3)ccc21)NCc1ccccc1Cl", "Potency": "inconclusive [inhibitor, single point]"}, {"smiles": "CC(C)c1nnc(N2C(=O)C(O)=C(C(=O)c3cccs3)C2c2ccccc2)s1", "note": "(stereo not given)", "activity change, negative = inhibition": "inactive: -4.25%"}, {"smiles": "COc1ccccc1CNc1ncnc2c1nnn2Cc1ccccc1", "Potency": "inconclusive [inhibitor, partial curve]"}, {"smiles": "COc1ccccc1/C=C/c1nc(C#N)c(NCC(C)C)o1", "Potency": "inconclusive [inhibitor, partial curve]"}, {"smiles": "Cc1ccccc1C(=O)Nc1nnc(-c2ccco2)s1", "Potency": "inconclusive [inhibitor, partial curve]"}, {"smiles": "CC1CCCCN1S(=O)(=O)c1ccc(NC(=O)c2cccs2)cc1", "note": "(stereo not given)", "Potency": "inconclusive [inhibitor, partial curve]"}, {"smiles": "CCN(C(=O)COC(=O)c1c2c(nc3ccccc13)/C(=C/c1ccccc1)CC(C)C2)C1CCS(=O)(=O)C1", "note": "(stereo not given)", "Potency": "inconclusive [inhibitor, full curve]"}, {"smiles": "CCOc1ccc(C2C(C(=O)Nc3ccccc3C)=C(C)Nc3nnnn32)cc1", "note": "(stereo not given)", "Potency": "inconclusive [inhibitor, partial curve, poor fit]"}, {"smiles": "CCc1ccc(S(=O)(=O)Nc2cc(SCC(=O)O)c(O)c3ccccc23)cc1", "activity change, negative = inhibition": "inactive: -1.91%"}, {"smiles": "CCN(c1ccccc1)S(=O)(=O)c1ccc(C(=O)NCc2ccccn2)cc1", "Potency": "inconclusive [inhibitor, single point]"}, {"smiles": "CCOC(=O)C(C(=O)NCc1ccc(C)cc1)c1ncc(C(F)(F)F)cc1Cl", "note": "(stereo not given)", "Potency": "inconclusive [inhibitor, partial curve]"}, {"smiles": "CSc1ncc(CN2CCCC(C(=O)c3ccc(C(C)(C)C)cc3)C2)cn1", "note": "(stereo not given)", "Potency": "inconclusive [inhibitor, partial curve, poor fit]"}, {"smiles": "Cc1ccc(C)c(NC(=O)/C(C#N)=C/c2ccc(C(C)C)cc2)c1", "Potency": "inconclusive [inhibitor, single point]"}, {"smiles": "CCC[n+]1c2ccccc2cc2ccccc21", "Potency": "inconclusive [inhibitor, partial curve, poor fit]"}, {"smiles": "Cc1ccc(NC(=S)N(CCN2CCCCC2)Cc2ccco2)cc1C", "Potency": "inconclusive [inhibitor, partial curve, poor fit]"}, {"smiles": "CCOC(=O)c1ccc(N2CCN(c3cc(C)ccc3C)CC2)c(NC(=O)Nc2ccc(Cl)cc2)c1", "activity change, negative = inhibition": "inactive: -14%"}, {"smiles": "O=C1[C@H]2[C@@H](c3ccc(F)cc3)N3C(=O)N(c4cccc(F)c4)C(=O)[C@@]3(Cc3ccc(Cl)cc3)[C@H]2C(=O)N1C1CCCCC1", "Potency": "inconclusive [inhibitor, full curve, poor fit]"}, {"smiles": "CN(Cc1cc([N+](=O)[O-])ccc1Cl)C(=O)C[n+]1ccccc1", "activity change, negative = inhibition": "inactive: 3.53%"}, {"smiles": "COc1ccc(C)cc1NC(=O)c1nnn(-c2c(C)cccc2C)c1C", "Potency": "inconclusive [inhibitor, single point]"}, {"smiles": "OCC1(CCc2ccccc2)CCN(Cc2cccn2-c2cccnc2)CC1", "Potency": "inconclusive [inhibitor, partial curve, poor fit]"}, {"smiles": "Cc1ccc(S(=O)(=O)N(CC(=O)Nc2ccccc2C(=O)O)c2ccc(Cl)cc2)cc1", "Potency": "inconclusive [inhibitor, single point]"}, {"smiles": "CCN(CC(=O)Nc1ccc(S(=O)(=O)N2CCCC2)cc1)Cc1ccccc1", "Potency": "inconclusive [inhibitor, single point]"}, {"smiles": "CCOC(=O)N1CCN(CC(=O)Nc2c(C(=O)OC)[nH]c3ccc(Cl)cc23)CC1", "Potency": "inconclusive [inhibitor, partial curve]"}, {"smiles": "Cc1ccc(OCCCNCCO)c(Br)c1", "Potency": "active: 3.98 µM"}, {"smiles": "O=C(NNC1CC(=O)N(c2ccc(Br)cc2)C1=O)c1cccs1", "note": "(stereo not given)", "Potency": "inconclusive [inhibitor, partial curve, poor fit]"}, {"smiles": "CCCCCCc1c(C)nc(-n2[nH]c(C)c(CCO)c2=O)[nH]c1=O", "activity change, negative = inhibition": "inactive: 15.5%"}, {"smiles": "Cc1ccc(CN2CCC(CNC(=O)Nc3ccc(C)c(C)c3)C2)cc1", "note": "(stereo not given)", "Potency": "inconclusive [inhibitor, partial curve, poor fit]"}, {"smiles": "COc1cc(SC)ccc1C(=O)NCCc1c[nH]c2ccccc12", "Potency": "inconclusive [inhibitor, single point]"}, {"smiles": "COC(=O)c1cc(Sc2cccc(Cl)c2Cl)ccn1", "Potency": "inconclusive [inhibitor, partial curve]"}, {"smiles": "CCN1CCCC1CNC(=O)Cn1nc(C)n2c(cc3cc(C)ccc32)c1=O", "note": "(stereo not given)", "Potency": "inconclusive [inhibitor, partial curve, poor fit]"}, {"smiles": "CC1=CC(C)(C)Nc2ccc(OC(=O)C(Cc3ccccc3)N3C(=O)C4CCCCC4C3=O)cc21", "note": "(stereo not given)", "Potency": "inconclusive [inhibitor, full curve]"}, {"smiles": "Nc1ccccc1N=Cc1ccc(-c2cccc(Cl)c2)o1", "Potency": "inconclusive [inhibitor, full curve, poor fit]"}, {"smiles": "COc1ccc(C(Sc2ccccc2)c2ccccc2)cc1OC", "note": "(stereo not given)", "Potency": "inconclusive [inhibitor, single point]"}]}]}
